The values that follow come from PubChem BioAssay AID488969 (Vanderbilt High Throughput Screening Facility, 2010).

Whole data set: some 110,000 compounds, median “z-score” near -0.1, cut for the highest 2% near 2. The list shows a part of the results.

This assay concerns the target Metabotropic glutamate receptor 8 (Rattus norvegicus) (UniProt P70579). The assay can be described thus: rat mGluR8 modulators via GIRK flux, primary screen, cell-based, thallium flux, HTS (AID 488969). To be noted: HEK293 rat mGluR8, GIRK (G protein-gated inwardly rectifying potassium channel) thallium flux, FluoZin2; at 10 µM; stronger effect = higher value; submaximal glutamate (EC20) added with thallium.
Chain of UniProt P70579 (P70579 whole entry, looked up): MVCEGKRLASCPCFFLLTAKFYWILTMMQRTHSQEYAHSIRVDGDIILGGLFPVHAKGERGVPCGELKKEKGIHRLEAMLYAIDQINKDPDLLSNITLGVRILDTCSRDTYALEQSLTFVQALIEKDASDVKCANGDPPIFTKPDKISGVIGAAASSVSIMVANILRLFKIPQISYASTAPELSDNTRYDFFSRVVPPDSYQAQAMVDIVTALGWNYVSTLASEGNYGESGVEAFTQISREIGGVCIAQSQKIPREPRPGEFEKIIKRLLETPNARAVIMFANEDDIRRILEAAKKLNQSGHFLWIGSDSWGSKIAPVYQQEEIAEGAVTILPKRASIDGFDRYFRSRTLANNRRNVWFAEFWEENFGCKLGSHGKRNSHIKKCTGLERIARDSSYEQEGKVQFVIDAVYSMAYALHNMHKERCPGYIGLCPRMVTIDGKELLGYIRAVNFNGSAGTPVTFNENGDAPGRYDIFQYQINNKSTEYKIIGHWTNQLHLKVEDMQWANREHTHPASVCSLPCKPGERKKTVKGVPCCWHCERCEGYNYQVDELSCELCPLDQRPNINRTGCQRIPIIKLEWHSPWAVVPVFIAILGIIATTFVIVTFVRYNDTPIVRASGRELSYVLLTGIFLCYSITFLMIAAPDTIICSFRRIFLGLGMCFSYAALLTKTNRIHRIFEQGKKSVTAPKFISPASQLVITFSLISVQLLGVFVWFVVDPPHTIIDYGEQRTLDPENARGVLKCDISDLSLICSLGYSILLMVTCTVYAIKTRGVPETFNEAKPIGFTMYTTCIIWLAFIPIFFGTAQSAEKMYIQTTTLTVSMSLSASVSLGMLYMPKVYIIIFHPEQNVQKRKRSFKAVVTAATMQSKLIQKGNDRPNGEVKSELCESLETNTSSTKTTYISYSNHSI
In turn, `COc1ccc(NC(=S)N2CCCC2)cc1` yielded a z-score of -0.0997.

In turn, `O=C(OCn1nnc2ccccc2c1=O)c1ccc(Br)o1` registered a z-score of -0.128.

Take `CNNC(=O)C(C)NC(=O)c1ccc(Br)cc1` (stereo not given): the z-score came out at 0.0699.

As for `CCC1C(=O)n2nc(-c3ccccc3)cc2N=C1C` (stereo not given), the z-score came to 0.252.

`Cn1cccc1Cc1nnc(SCC(=O)NCc2ccccc2)n1-c1ccc(F)cc1` registered a z-score of -0.102.

With `Cc1nc2ccccc2c2c1C(=O)N(C)C2=O`, the z-score was -0.142.

`CC1CN(S(=O)(=O)c2ccc(C(=O)NN3CCN(C)CC3)cc2)CC(C)O1` (stereo not given) returned a z-score of -0.181.

Compound `O=C(Nc1cccc2cccnc12)c1cccnc1` registered a z-score of 0.172.

Turning to `Cc1ccc(C(=O)Oc2ccccc2N2C(=O)C3CCCCC3C2=O)cc1` (stereo not given), the z-score is -0.0226.

In turn, `Cc1c(C(=O)Nc2ccccc2)cn2c(nc3ccccc32)c1C#N` registered a z-score of -0.348.

For the compound `Cc1cc(C)c(NC(=O)C2CCCN2CCOC(=O)c2cccc([N+](=O)[O-])c2)c(C)c1` (stereo not given), the z-score is 0.189.

Take `Cc1cc(C)cc(Oc2ccccc2/C=N\O)c1`: the z-score is -0.125.

With `COc1cccc(CC(NC(C)=O)C(=O)NC2CCN(c3nc(C)cc(C)c3C#N)CC2)c1OC` (stereo not given), the z-score is -0.0194.

In turn, `C/C(=N\N=C(N)N)c1cccc([N+](=O)[O-])c1` had a z-score of 0.671.

The compound `CC[n+]1c(/C=C2/C=C(C)CC(C)(C)C2)sc2ccc(OC)cc21` registered a z-score of 0.704.

Consider `COC(=O)c1ccc(C2/C(=C(/O)c3ccc(OC)cc3)C(=O)C(=O)N2Cc2ccco2)cc1` (stereo not given), for which the z-score is -0.382.

The compound `CC(O)CNCc1cccc2ccccc12` (stereo not given) had a z-score of 0.213.

Consider `O=[N+]([O-])c1cc(C(F)(F)F)ccc1-n1nnc2ccccc21`, for which the z-score was -0.202.

Turning to `Cc1cccc(CSC2=CS(=O)(=O)c3ccccc3N2)c1`, the z-score turned out to be 0.0419.

As for `COc1ccc(CCNC(=O)CC2Oc3ccc(Cl)cc3NC2=O)cc1OC` (stereo not given), the z-score is -0.723.

`COc1ccc(N2C3=C(CC4=C2CC(C)(C)CC4=O)C(=O)CC(C)(C)C3)cc1` registered a z-score of 1.09.

As to `O=C(NCc1ccco1)c1cccn2c(=O)c3c4c(sc3nc12)CCCC4`, the z-score is -0.173.

In the case of `Cc1nn(Cc2ccccc2)c(Cl)c1C(=O)OCc1nnc(-c2ccccc2)o1`, the z-score was -0.0192.

In turn, `Cc1noc(/C=C/N(C)C)c1S(=O)(=O)N1CCCC(C(=O)NC(C)c2ccccc2)C1` (stereo not given) showed a z-score of -0.241.

In turn, `CC(c1ccccc1)N(CCC(c1ccccc1)C1CCOC(C)(C)C1)C(=O)c1ccco1` (stereo not given) gave a z-score of 0.131.

As for `CCOC(=O)Cc1csc(NC(=O)c2cccnc2)n1`, the z-score was -0.484.

In turn, `COc1ccccc1OCc1nnc(SCC(=O)Nc2ccc(C)cc2)n1C` yielded a z-score of 1.47.

The compound `CCn1nnnc1SCC(=O)Nc1ccc2c(c1)OCCO2` gave a z-score of 0.914.

In the case of `Cc1sc2nc(C3CC3)nc(NCCNS(=O)(=O)c3ccccc3)c2c1C`, the z-score was -0.674.

As for `Cc1ccc(NC(=O)CCNC(=O)c2ccccc2Cl)cc1S(=O)(=O)N(C)C`, the z-score is -0.00648.

For the compound `COc1ccc(C2SCCN2S(=O)(=O)c2ccccc2)cc1OC` (stereo not given), the z-score was 0.808.

For the compound `Cc1c(Cl)cccc1NC(=S)NCc1ccccc1`, the z-score was determined as 0.394.

`S=C(Nc1ccccc1)c1ccccn1` came in with a z-score of 2.52.

As for `COC(=O)c1c(NC(=O)CC2Nc3ccccc3NC2=O)sc(C)c1C` (stereo not given), the z-score was -0.371.

Turning to `O=C(NCc1cccnc1)c1sc2ccccc2c1Cl`, the z-score was -0.216.

In turn, `CCOC(=O)c1c(NC(=O)CSc2nc3c(c(=O)n(C)c(=O)n3C)n2C(C)C)sc(C)c1C` came in with a z-score of 0.0988.

In turn, `Cc1ccc(S(=O)(=O)Nc2cccc(/C=C/C(=O)O)c2)cc1` displayed a z-score of -0.213.

`CCOC(=O)c1cc(CC)sc1/N=C/C1=C(O)CCCC1=O` gave a z-score of -0.316.

Take `CCOC(=O)c1c(-c2cccc([N+](=O)[O-])c2)csc1N`: the z-score was -0.461.

With `N#Cc1nc(-c2ccco2)oc1NCc1ccco1`, the z-score is 0.193.

Consider `O=S(=O)(c1cccs1)N1CN(Cc2ccc(Cl)cc2)c2nc3ccccc3nc21`, for which the z-score was -0.298.

`Cc1nnc(SC(C)C(=O)Nc2ccc(S(=O)(=O)N3CCCCC3)cc2)s1` (stereo not given) returned a z-score of -0.135.

Take `Cc1ccc(Nc2nc(-c3ccc(S(=O)(=O)N4CCCC4)cc3)cs2)cc1C`: the z-score is -0.192.

`COc1cc(CN2CC(=O)N(c3ccc(C)cc3)C2=S)cc(OC)c1OC` came in with a z-score of -1.1.

In turn, `CC(=O)N1CCc2cc(S(=O)(=O)NC(CC(C)C)C(=O)N3CCc4ccccc4C3)ccc21` (stereo not given) returned a z-score of 0.864.

For the compound `COc1ccc(OC)c(-c2cc(C(=O)Nc3cc(C)on3)no2)c1`, the z-score was found to be 0.941.

Compound `COc1ccc(/C=N\N=C2/SC(CC(=O)O)C(=O)N2c2ccc(O)cc2)cc1OC` (stereo not given) displayed a z-score of -0.0449.

For `O=C(NCCCCCCNC(=O)N1CCCCCC1)N1CCCCCC1`, the z-score was determined as 0.00943.

Consider `Cc1ccc(/C=N/NC(=O)c2ccncc2)o1`, for which the z-score is -0.098.

Turning to `Cc1ccc(S(=O)(=O)N2CCN(C(=O)/C=C/c3ccco3)CC2)cc1`, the z-score was -0.368.

In turn, `O=C(NC(NNc1ccc([N+](=O)[O-])cc1)(C(F)(F)F)C(F)(F)F)c1ccc(Cl)cc1` yielded a z-score of 0.216.

As for `Cc1ccc(N2CCN(/N=C/c3c(C)nn(-c4ccccc4)c3Cl)CC2)cc1`, the z-score was 0.225.

`CCOc1ccc(OCC(=O)c2c(O)c3ccccc3oc2=O)cc1` gave a z-score of -0.988.

With `CCOC(=O)Cn1c(-c2nonc2NC(=O)c2ccccc2F)nc2ccccc21`, the z-score was -0.605.

Compound `CCCC(C)NC(=O)c1ccc2[nH]c3c(c2c1)CC(C)CC3` (stereo not given) came in with a z-score of -0.815.

`O=C(O)Cn1nc(-c2ccccc2)oc1=O` yielded a z-score of -0.197.

With `O=C(/C=C/Nc1cccc([N+](=O)[O-])c1)c1ccco1`, the z-score was -0.108.

`CN(C)C(=O)CN(c1ccc2c(c1)OCO2)S(C)(=O)=O` showed a z-score of -0.0253.

`CCC(=O)NC(C)C(c1cccs1)N1CCN(c2ccccc2)CC1` (stereo not given) displayed a z-score of -0.365.

For `O=c1[nH]c(SCc2cccc(Cl)c2)nc2c1CCCC2`, the z-score was -0.579.

As to `CC1CCc2nn(CC(=O)NCCCN3CCOCC3)cc2C1` (stereo not given), the z-score is -0.0438.

`Cc1ccc(C2(CC(=O)N3CCCC3)CCOC(C(C)C)C2)cc1` (stereo not given): the z-score was -0.0604.

`CCc1nc(N2CCN(C(=O)c3ccco3)CC2)c2c3c(sc2n1)CCCC3` showed a z-score of -0.311.

Turning to `CC1(C)Cc2[nH]c(=O)c(C#N)cc2CS1`, the z-score worked out at 0.0257.

`CCN1C(=O)C(Cc2nc3ccccc3c(=O)n2-c2ccccc2)c2ccccc21` (stereo not given) returned a z-score of -0.788.

`CC(=O)NC1=NN(C(C)=O)C(C)(CS(=O)(=O)c2ccc(C)c(C)c2)S1` (stereo not given) displayed a z-score of -0.323.

Compound `CCN1CCN(c2nc(C)c3c(n2)CCCC3=O)CC1` registered a z-score of 0.0036.

Regarding `C=CCN1C(=O)CN=C1Nc1cc(C)cc(C)c1`, the z-score turned out to be 0.608.

`COc1ccc(N2CC(NC(=O)NCCC(C)C)CC2=O)cc1` (stereo not given) returned a z-score of -0.149.

In turn, `Cc1ccccc1C(=O)NC(NC(=S)Nc1ccc(S(N)(=O)=O)cc1)C(Cl)(Cl)Cl` (stereo not given) gave a z-score of -0.0195.

Consider `COc1ccc(S(=O)(=O)N(CC(=O)NC(C)C)Cc2ccccc2)cc1`, for which the z-score is -0.329.

`COc1ccccc1NC(=O)CNC(=O)c1ccccc1C` gave a z-score of 0.371.

`O=C(/C=C1\NC2(CCCC2)Cc2ccccc21)N1CCOCC1`: the z-score is -0.0389.

In turn, `Cc1cccc(C)c1OCC(=O)Nc1nnc(C2CCCO2)s1` (stereo not given) registered a z-score of -0.229.

Consider `Cc1ccc(-n2c(Cc3cccs3)nnc2SCC(=O)Nc2ccc(F)c(F)c2)cc1`, for which the z-score is -0.996.

`CCOC(=O)c1[nH]c2ccccc2c1NC(=O)CCN1CC(C)OC(C)C1` (stereo not given): the z-score was -0.182.

`COc1ccccc1NC(=O)N1CCC(c2nnc(SCC(N)=O)n2C)CC1` had a z-score of 0.198.

In turn, `CCOC(=O)CN(C(=O)CN1CCC(n2nnc3cc(C)ccc32)CC1)c1ccccc1` returned a z-score of -0.262.

In turn, `O=C1c2ccccc2C(Nc2ccc(S(=O)(=O)N3CCCCCC3)cc2)N1Cc1ccco1` (stereo not given) displayed a z-score of -0.686.

`COCCNc1nc(SCC(=O)N2CCN(c3ccccc3OC)CC2)nc2ccccc12` came in with a z-score of -0.345.

Regarding `CCOC(=O)Cn1c2c(c(=N)c3c1CCC3)CCCC2`, the z-score was -0.104.

As for `CCc1nc(N2CCN(S(=O)(=O)c3ccc(Br)cc3)CC2)c2c(C)c(C)sc2n1`, the z-score was -0.0531.

Compound `CCn1cc(C(=O)O)c(=O)c2cc(Br)ccc21` yielded a z-score of -0.0402.

In turn, `Cc1ccc(NC(=O)C(c2ccc(Cl)cc2Cl)N2CCCC2)cc1` (stereo not given) came in with a z-score of -0.623.

`CCC(C)C1C(C#N)=C(N)Oc2n[nH]c(-c3ccccc3)c21` (stereo not given) gave a z-score of -1.15.

On to `COc1ccc(S(=O)(=O)N(C)CC(=O)NCCC2=CCCCC2)cc1OC`, for which the z-score is -0.175.

`CCOc1ccccc1-n1c(SCC(=O)NC(C)CC)nnc1-c1ccoc1C` (stereo not given) yielded a z-score of -0.551.

On to `COC(=O)c1ccccc1NC(=O)NCC1CCCO1` (stereo not given), for which the z-score is -0.359.

Regarding `Cc1ccc(C2C(C#N)=C(N)Oc3n[nH]c(-c4ccccc4)c32)o1` (stereo not given), the z-score is -0.499.

`O=C(NCc1ccccc1)NC1CC2CCC(C1)N2Cc1ccco1` (stereo not given) yielded a z-score of 0.345.

Take `COc1ccc(CCn2c(=N)c(C(=O)NCc3ccco3)cc3c(=O)n4cccc(C)c4nc32)cc1`: the z-score was -0.705.

`Clc1cccc(Nc2c3c(nc4ncnn24)CCC3)c1`: the z-score turned out to be 0.0902.

`COc1ccc2nc(C)cc(SCC(=O)NNC(=O)COc3cccc4ccccc34)c2c1`: the z-score is 0.0715.

`O=C(CSc1nc2c(c(=O)n1-c1ccc(F)cc1)SCC2)NCC1CCCO1` (stereo not given) displayed a z-score of -0.639.

Regarding `C=CCn1cc(C(=O)N2CCN(C)CC2)c(=O)c2cc(S(=O)(=O)N3CCCC3)ccc21`, the z-score is -0.00979.

The compound `O=C1CC(c2ccccc2)Cc2nc3ncnn3cc21` (stereo not given) gave a z-score of -0.0228.

`Cc1ccc(S(=O)(=O)N2CCC(C(=O)NCc3ccncc3)CC2)cc1` registered a z-score of -0.238.

Regarding `Cc1ccc(C(=O)c2cncc(Br)c2)cc1`, the z-score is -0.162.

`O=C(CSc1nnc(CCc2nc3ccccc3[nH]2)n1-c1ccccc1)NCc1ccccc1` displayed a z-score of -1.02.

In turn, `COC(=O)CC1=C(C)C(=O)CC2C(C)(C)CCCC12C` (stereo not given) showed a z-score of 0.0399.

Compound `O=C(O)/C(=C1\OC(=O)c2ccccc21)c1ccccc1` yielded a z-score of -0.194.

In the case of `CCOc1c(OC(C)=O)ccc(/C=C/c2ccc3cccc(OC(C)=O)c3n2)c1[N+](=O)[O-]`, the z-score was -0.227.

Turning to `Cc1cc(C)nc(NC(=O)Cc2cccs2)n1`, the z-score was 0.27.

`O=C(Nc1ccc(Cl)c([N+](=O)[O-])c1)c1cnccn1` returned a z-score of -0.322.

`S=C(NCCc1ccccc1)N1CCN(Cc2ccc(Cl)c(Cl)c2)CC1`: the z-score is -0.404.

As for `CCCCCC1NC(=O)NC1CCCCCC(=O)O` (stereo not given), the z-score was 0.269.

Regarding `COc1nc(-c2ccc(Cl)cc2)ccc1-c1noc(-c2ccncc2)n1`, the z-score is -0.255.

On to `COC(=O)c1sc(NC(=O)C(C)C)c(C(=O)OC)c1C`, for which the z-score was 0.892.

Regarding `CCOc1ccc(S(=O)(=O)N2CCN(c3ccccc3OC)CC2)c2cccnc12`, the z-score was determined as 0.036.

Regarding `CCn1c(CNC(=O)c2ccco2)nnc1SCC(=O)Nc1cc(C(F)(F)F)ccc1Cl`, the z-score is -0.203.
